# The whole screen tested about 110,000 compounds, of which about 230 (0.21%) showed an effect of 50% or more. Some of the results follow.
# Target: DPAP1 (Plasmodium falciparum, UniProt Q8IIJ9)
# Test: primary screen, percent inhibition; read by cleavage of a fluorogenic dipeptide substrate; higher = more effect of the substance
# Parameters: species or system P. falciparum D10 trophozoite lysates; single well
# 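Further: 30 min substrate incubation versus DMSO and 10 µM JCP410 controls.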
# Sequence of DPAP1 (Q8IIJ9 whole entry, looked up): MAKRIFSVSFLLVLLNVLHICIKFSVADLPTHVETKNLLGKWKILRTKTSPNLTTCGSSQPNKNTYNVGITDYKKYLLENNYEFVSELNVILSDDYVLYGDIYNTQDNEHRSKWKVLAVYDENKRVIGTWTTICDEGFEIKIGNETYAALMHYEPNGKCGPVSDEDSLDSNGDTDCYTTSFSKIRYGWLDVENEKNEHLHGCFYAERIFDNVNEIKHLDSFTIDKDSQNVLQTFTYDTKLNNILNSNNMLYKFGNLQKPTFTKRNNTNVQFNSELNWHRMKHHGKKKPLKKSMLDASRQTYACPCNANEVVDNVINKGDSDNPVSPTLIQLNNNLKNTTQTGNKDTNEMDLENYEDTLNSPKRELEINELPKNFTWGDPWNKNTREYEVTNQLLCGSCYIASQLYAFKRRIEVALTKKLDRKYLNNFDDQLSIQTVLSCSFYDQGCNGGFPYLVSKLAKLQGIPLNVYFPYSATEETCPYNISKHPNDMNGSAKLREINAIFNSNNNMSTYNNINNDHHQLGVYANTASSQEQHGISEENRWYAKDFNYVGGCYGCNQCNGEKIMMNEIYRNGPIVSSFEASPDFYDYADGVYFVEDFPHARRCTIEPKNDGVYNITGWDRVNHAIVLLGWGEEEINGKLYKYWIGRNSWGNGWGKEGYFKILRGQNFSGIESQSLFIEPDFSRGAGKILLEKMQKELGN
row,SMILES,% Inhibition @ 10 uM [%]
1,COc1ccc(C(=O)Cc2ccc(OC)cc2C)cc1,1.92
2,CCC(NS(=O)(=O)c1ccccc1)(C(=O)O)c1ccccc1 (stereo not drawn),4.75
3,CCCS(=O)(=O)N1CCC(C(=O)Nc2ccc(C(=O)O)cc2)CC1,-3.39
4,COc1cccc(C2C3=C(O)CCCC3=Nc3ncnn32)c1 (stereo not drawn),-1.1
5,Cc1ccc(Cn2c(C)c3cnn(CC(=O)NCCCN4CCN(C)CC4)c(=O)c3c2C)cc1,-0.447
6,CC1CCCN(C(=O)C2CCN(S(=O)(=O)c3c[nH]cn3)CC2)C1 (stereo not drawn),-2.29
7,CCOc1ccc(C2C=C(c3ccc(C)c(C)c3)Nc3ncnn32)cc1 (stereo not drawn),-3.23
8,O=C(CSCC(=O)Nc1cc(Cl)ccc1Cl)Nc1ccc(F)cc1,-1.6
9,O=S(=O)(NCCO)c1cccc2cccnc12,0.0289
10,Cc1ccc(-n2c3c(c(=O)[nH]c2=O)C(NC(=O)c2cccc(Cl)c2)(C(F)(F)F)C(=O)N3)cc1 (stereo not drawn),0.475
11,CCc1nnc(NC(=O)CSc2nc(N)cc(O)n2)s1,1.75
12,CC(C)(C)NC1CCCCC1NS(=O)(=O)c1ccc(Cl)cc1 (stereo not drawn),2.62
13,COc1cc(C2=NOC(C(=O)NCc3cccs3)C2)cc(OC)c1OC (stereo not drawn),-0.431
14,Cc1cc(C)c(S(=O)(=O)c2ccc(Cl)cc2)c(C)c1S(=O)(=O)Nc1ccc(NC(=O)c2ccccc2)cc1,-3.66
15,CCCC1CCc2c(sc(NC(=O)c3cc(C)oc3C)c2C#N)C1 (stereo not drawn),-3.9
16,O=C(NC1CC1)C1C2C=CC3(CN(Cc4ccccc4Cl)C(=O)C13)O2 (stereo not drawn),0.287
17,CC(CNC(=O)c1cnccn1)NC(=O)c1cnccn1 (stereo not drawn),-1.02
18,COc1ccccc1CCNc1ncnc2onc(-c3cccc(Cl)c3)c12,-2.19
19,CCOC(=O)/C=C(\C)CCC=C(C(C)C)C(C)C,0.708
20,Cc1cc(C(=O)C(=O)Nc2nccs2)c(C)n1-c1cccc(Cl)c1,-1.06
21,Cc1ccccc1NC(=O)CN1C(=O)S/C(=C/c2ccc3c(c2)n(C)c(=O)n3C)C1=O,-8.36

row,SMILES,% Inhibition @ 10 uM [%]
1,CN(C)CCCSc1nnc2c(n1)[nH]c1ccccc12,3.96
2,O=C(N/C=C\NC(=O)c1ccccc1)c1ccccc1,-10.5
3,COc1cc(C2C(C(=O)Nc3ccccn3)=C(C)Nc3ncnn32)ccc1OCc1ccccc1 (stereo not drawn),4.27
4,Fc1ccc(C2NCCn3cccc32)cc1 (stereo not drawn),-2.18
5,CC(C)CC1=NN(C(=O)c2ccncc2)C(O)(C(F)(F)F)C1 (stereo not drawn),-5.13
6,N#CC1=C(SCCSC2=C(C#N)C3(CCCC3)C(C#N)C(=O)N2)NC(=O)C(C#N)C12CCCC2 (stereo not drawn),3.01
7,N#CC1=C(SCC(N)=O)N=C2C(=C(O)c3ccccc32)C1c1ccccc1 (stereo not drawn),-2.24
8,N#CC1=C(N)Oc2cc(Nc3ccccc3)ccc2C1c1cccnc1 (stereo not drawn),-10.8
9,O=C(c1ccccc1)N1CCN(C2CC(=O)N(c3cc(Cl)cc(Cl)c3)C2=O)CC1 (stereo not drawn),0.475
10,Cn1c2c(s/c1=N\C(=O)c1cccs1)CCc1ccccc1-2,-1.43
11,O=C(NCc1ccc2c(c1)OCO2)c1nc(CS(=O)(=O)c2ccc(Cl)cc2)no1,-4.73
12,COc1cc(OC)cc(C(=O)Nc2ccc(S(N)(=O)=O)cc2)c1,-2.85
13,CCN(CC)c1ncnc2c1ncn2C1OC(CO)C(O)C1O (stereo not drawn),-1.06
14,CC1(C)CC(=NOC(=O)N2c3ccccc3C=Cc3ccccc32)CC(C)(C)N1,-2.42
15,Cc1c(Cl)cccc1N(CC(=O)N1CCCCCC1)S(=O)(=O)c1ccccc1,-2.03
16,COc1ccc(S(=O)(=O)N(C)c2ccccc2)cc1,5.09
17,CC(Cc1ccccc1Sc1ccccc1O)N(C)C (stereo not drawn),-27.5
18,CC(Cc1ccccc1)NC(=O)Cc1ccc(N)cc1 (stereo not drawn),1.57
19,CC(=O)c1c(C)[nH]c(C(=O)NCc2ccccc2Cl)c1C,-4.14
20,CN(C)c1nc(Oc2ccc(=O)n(C)n2)nc(N(C)C)n1,-2.65
21,Nc1ccc(Br)cc1-c1nc2ccccc2nc1O,-0.591

row,SMILES,% Inhibition @ 10 uM [%]
1,Nc1c(C(=O)c2ccc(Cl)cc2)sc2nc3c(c(-c4ccc(Cl)cc4)c12)CCCC3,-4.21
2,COCCCNc1nc2c(-c3cccc(C(F)(F)F)c3)nnn2c2ccccc12,-2.92
3,CC(=O)NCCc1c(C(=O)O)[nH]c2ccc(C(C)=O)cc12,4.65
4,CC1(C)CC(=O)C(C(NC(=O)c2ccccc2)(C(F)(F)F)C(F)(F)F)=C(O)C1,3.72
5,CCOc1ccc(/C=C/c2nc(C#N)c(NCc3ccc(F)cc3)o2)cc1,0.895
6,O=C(O)c1ccc(Oc2ccc3c(c2)C(=O)N(c2ccccc2O)C3=O)cc1,18.3
7,CCCN(CCC)CCNC(=O)NCc1noc2ccc(C)cc12,-1.97
8,Cc1cc(O)nc(SCC(=O)Nc2cc(Cl)ccc2Oc2ccccc2)n1,-1.08
9,CCC(Sc1nncn2c1cc1oc(C)cc12)C(=O)NCCc1ccccc1 (stereo not drawn),-3.46
10,CN(C)CCCNc1oc(-c2cccs2)nc1S(=O)(=O)c1ccccc1,-9.11
11,CN1C(=O)c2[nH]nc(-c3ccccc3)c2C1c1cccnc1 (stereo not drawn),2.29
12,CC(=O)NC(Cc1ccccc1)C(=O)NCc1ccccc1 (stereo not drawn),5.99
13,CC1CCCc2sc(NC(=O)CCC(=O)O)c(C#N)c21 (stereo not drawn),-1.64
14,CN(Cc1cccc(Br)c1)CC(O)c1ccccc1 (stereo not drawn),-2.24
15,NC(=O)c1ccc(NC(=O)CCN2C(=O)c3ccccc3C2=O)cc1,-1.44
16,CC(C)C[C@H](NC(=O)c1ccnc(N2CCN(C)CC2)c1)C(=O)NCC#N,2.22
17,Cc1nc2nc(C)c(NS(=O)(=O)c3cccs3)c(O)n2n1,-0.0709
18,COc1nc(NCCc2ccc(OC)c(OC)c2)nc(NC(C)(C)CO)n1,-2.14
19,O=C1NC(=S)NC(=O)C1=Cc1cccc2ccccc12,-1.25
20,COc1cc(C(=O)Nc2c3c(nn2-c2ccc(C)cc2C)CS(=O)(=O)C3)cc(OC)c1OC,1.32
21,CC(CCc1ccccc1)NC(=O)Cn1ncc2c3ccccc3n(C)c2c1=O (stereo not drawn),-3.67

# From article PMC6919601, “Identification of Plasmodium dipeptidyl aminopeptidase allosteric inhibitors by high throughput screening” (PLoS ONE, 2019)
